{"source": "PubChem BioAssay (Tox21)", "key": {"[1]": {"assay": "qHTS assay to identify small molecule that activate the aryl hydrocarbon receptor (AhR) signaling pathway - cell viability counter screen (AID 743086); also: nearly all actives have a fitted effect of over 45% in size; as to viability change, negative = cytotoxic: % is scaled to controls: 0 for no effect and ±100 for the full control effect", "how_it_was_run": "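Cytotoxicity counter screen: CellTiter-Fluor signal (30 min, 37 C) in 4000 HepG2 cells/well carrying the DRE-luciferase reporter, following 24 h compound exposure at 37 C.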"}, "[2]": {"molecular_target": "Peroxisome proliferator-activated receptor gamma (Homo sapiens) (UniProt P37231)", "sequence (P37231 whole entry, looked up)": "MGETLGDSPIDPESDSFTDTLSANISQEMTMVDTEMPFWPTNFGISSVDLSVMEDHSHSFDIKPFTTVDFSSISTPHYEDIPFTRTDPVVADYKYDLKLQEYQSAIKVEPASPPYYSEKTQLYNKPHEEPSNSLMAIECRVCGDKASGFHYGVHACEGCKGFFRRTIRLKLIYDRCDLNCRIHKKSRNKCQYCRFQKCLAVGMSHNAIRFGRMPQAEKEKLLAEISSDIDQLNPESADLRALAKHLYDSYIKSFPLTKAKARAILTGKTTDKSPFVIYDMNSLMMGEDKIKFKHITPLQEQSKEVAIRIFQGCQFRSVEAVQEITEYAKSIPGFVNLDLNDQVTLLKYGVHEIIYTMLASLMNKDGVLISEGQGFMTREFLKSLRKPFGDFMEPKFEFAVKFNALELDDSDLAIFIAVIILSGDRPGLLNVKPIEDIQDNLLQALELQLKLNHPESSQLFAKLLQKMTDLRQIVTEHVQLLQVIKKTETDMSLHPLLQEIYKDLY", "assay": "qHTS assay to identify small molecule agonists of the peroxisome proliferator-activated receptor gamma (PPARg) signaling pathway (AID 743094; active = well fitted activation curve with a large enough effect in the signal ratio in the repeat runs, not every such curve was filed as active; inconclusive = weak or mixed curves, or effect the other way; inactive = no such curve, though single readings can be large or run the other way; the % refers to the signal ratio)", "conditions": "HEK293H PPARg-UAS-bla, beta-lactamase FRET ratio, 17 h; activation: at 57 µM (top of the series) unless noted", "how_it_was_run": "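Agonism was assessed in a beta-lactamase reporter system, HEK293H cells with a stably integrated UAS-bla construct under PPARg control; the 17 h treatment at 37C preceded a 1 h room-temperature FRET substrate read.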"}, "[3]": {"molecular_target": "Peroxisome proliferator-activated receptor gamma (Homo sapiens) (UniProt P37231)", "assay": "qHTS assay to identify small molecule antagonists of the peroxisome proliferator-activated receptor gamma (PPARg) signaling pathway (AID 743191; calls by dose curve; also: nearly all actives have a fitted effect of over 30% in size)", "conditions": "HEK293H PPARg-UAS-bla, beta-lactamase ratio, antagonist, 17 h; ratio activity, negative = inhibition: at 62.6 µM (top of the series) unless noted", "how_it_was_run": "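Beta-lactamase reporter under UAS control in HEK293H PPARg-bla cells; compound treatment 17 h at 37C. Read-out: fluorescence intensity after 1 h room-temperature incubation with LiveBLAzer B/G FRET substrate.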"}, "[4]": {"assay": "qHTS assay for small molecule agonists of the antioxidant response element (ARE) signaling pathway (AID 743202; active = well fitted activation curve with a large enough effect in the signal ratio in the repeat runs, not every such curve was filed as active; inconclusive = weak or mixed curves, or effect the other way; inactive = no such curve, though single readings can be large or run the other way; the % refers to the signal ratio)", "conditions": "HepG2 ARE-bla reporter, beta-lactamase FRET, 16 h; activation: at 73.3 µM (top of the series) unless noted", "how_it_was_run": "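After 16 hours of compound treatment at 37 C, HepG2 cells with a stably integrated ARE-driven beta-lactamase reporter were loaded 2 hours at room temperature with LiveBLAzer B/G FRET substrate and fluorescence intensity measured.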"}, "[5]": {"molecular_target": "Vitamin D3 receptor (Homo sapiens) (UniProt P11473)", "sequence (P11473 whole entry, looked up)": "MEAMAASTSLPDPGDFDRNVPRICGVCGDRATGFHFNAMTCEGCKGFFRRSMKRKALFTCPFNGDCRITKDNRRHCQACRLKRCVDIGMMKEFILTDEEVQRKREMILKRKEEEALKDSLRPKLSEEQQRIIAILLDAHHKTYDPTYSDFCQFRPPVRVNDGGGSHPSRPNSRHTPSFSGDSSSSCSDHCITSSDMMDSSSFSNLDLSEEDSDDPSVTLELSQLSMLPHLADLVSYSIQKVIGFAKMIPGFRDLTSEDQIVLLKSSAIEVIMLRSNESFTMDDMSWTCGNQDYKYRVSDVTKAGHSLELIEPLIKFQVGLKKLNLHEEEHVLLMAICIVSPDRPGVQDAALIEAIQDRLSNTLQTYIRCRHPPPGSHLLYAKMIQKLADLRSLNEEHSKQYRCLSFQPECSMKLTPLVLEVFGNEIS", "assay": "qHTS assay to identify small molecule agonists of the vitamin D receptor (VDR) signaling pathway (AID 743222; calls by dose curve; as to activation: % is scaled to controls: 0 for no effect and ±100 for the full control effect)", "conditions": "HEK293T VDR-UAS-bla, beta-lactamase FRET ratio, 16 h; activation: at 63.5 µM (top of the series) unless noted", "how_it_was_run": "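Tox21 cell reporter format: VDR-bla line, 16 h compound exposure in 5% CO2 at 37C, then fluorescence intensity after 2 h with LiveBLAzer B/G FRET substrate.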"}, "[6]": {"assay": "qHTS assay to identify small molecule antagonists of the peroxisome proliferator-activated receptor gamma (PPARg) signaling pathway - cell viability counter screen (AID 743194); also: nearly all actives have a fitted effect of over 55% in size", "conditions": "PPARg-bla HEK293H viability, CellTiter-Glo luminescence, 17 h, co-treated with 50 nM rosiglitazone; activity change, negative = cytotoxicity: at 62.6 µM (top of the series) unless noted", "how_it_was_run": "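Viability was measured as CellTiter-Glo luminescence in GeneBLAzer PPARg UAS-bla HEK293H cells. These cells had been exposed 17 h at 37 C to compounds together with rosiglitazone at 50 nM final, with the beta-lactamase readout taken in the same wells.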"}, "[7]": {"assay": "qHTS assay for small molecule activators of the heat shock response signaling pathway - cell viability counter screen (AID 743209); also: nearly all actives have a fitted effect of over 50% in size", "conditions": "HSE-bla HeLa viability, CellTiter-Glo luminescence, 5 h; activity change, negative = cytotoxicity: at 62.6 µM (top of the series) unless noted", "how_it_was_run": "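Compounds dissolved in DMSO were added to overnight-plated HSE-bla HeLa cells and left 5 h at 37 C. Cell viability was quantified by luminescence using CellTiter-Glo.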"}, "[8]": {"assay": "qHTS assay for small molecule activators of the heat shock response signaling pathway (AID 743210; active = well fitted activation curve with a large enough effect in the signal ratio in the repeat runs, with a control signal flat, not every such curve was filed as active; inconclusive = weak or mixed curves; the % refers to the signal ratio)", "conditions": "HeLa HSE-bla reporter, beta-lactamase ratio, 5 h; activation: at 62.6 µM (top of the series) unless noted", "how_it_was_run": "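Compound exposure lasted 5 h at 37 C in HeLa cells carrying a heat-shock-element-driven beta-lactamase reporter. Read-out: fluorescence intensity after 2.5 h room-temperature loading with LiveBLAzer B/G FRET substrate.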"}, "[9]": {"assay": "qHTS assay to identify small molecule agonists of the farnesoid-X-receptor (FXR) signaling pathway - cell viability counter screen (AID 743218); also: nearly all actives have a fitted effect of over 45% in size", "conditions": "FXR-bla HEK293T viability, CellTiter-Glo luminescence, 16 h; viability change, negative = cytotoxic: at 62.6 µM (top of the series) unless noted", "how_it_was_run": "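Quantitative HTS counter screen measuring ATP-based viability via CellTiter-Glo luminescence in HEK 293T cells carrying a UAS-driven beta-lactamase reporter, after 16 h compound exposure at 37 C.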"}, "[10]": {"assay": "qHTS assay to identify small molecule antagonists of the farnesoid-X-receptor (FXR) signaling pathway - cell viability counter screen (AID 743221; active = well fitted cell-killing curve with a large enough effect in the repeat runs, not every such curve was filed as active; inconclusive = weak or mixed curves, or effect the other way; inactive = no such curve, though single readings can be large or run the other way; also: nearly all actives have a fitted effect of over 50% in size)", "conditions": "FXR-bla HEK293T viability, CellTiter-Glo luminescence, 16 h; activity change, negative = cytotoxicity: at 62.6 µM (top of the series) unless noted", "how_it_was_run": "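Compound effects on cell number were measured as CellTiter-Glo luminescence in HEK 293T cells expressing FXR-UAS-bla, after 16 h at 37 C with 50 uM CDCA (final).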"}, "[11]": {"molecular_target": "Vitamin D3 receptor (Homo sapiens) (UniProt P11473)", "assay": "qHTS assay to identify small molecule antagonists of the vitamin D receptor (VDR) signaling pathway (AID 743223; active = well fitted inhibition curve with a large enough effect in the signal ratio in the repeat runs, not every such curve was filed as active; inconclusive = weak or mixed curves, or effect the other way; inactive = no such curve, though single readings can be large or run the other way; the % refers to the signal ratio; as to activity change, negative = inhibition: % is scaled to controls: 0 for no effect and ±100 for the full control effect)", "conditions": "VDR-UAS-bla HEK293T, beta-lactamase FRET ratio, 16 h; activity change, negative = inhibition: at 61 µM (top of the series) unless noted", "how_it_was_run": "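Beta-lactamase activity in VDR-bla cells is measured by FRET substrate fluorescence (2 h, room temperature) after cells spend 16 h at 37C with test compound and 3 nM final 1alpha,25-dihydroxyvitamin D3.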"}, "[12]": {"assay": "qHTS assay to identify small molecule agonists of the vitamin D receptor (VDR) signaling pathway - cell viability counter screen (AID 743224); also: nearly all actives have a fitted effect of over 50% in size; as to activity change, negative = cytotoxicity: % is scaled to controls: 0 for no effect and ±100 for the full control effect", "conditions": "VDR-bla HEK293T viability, CellTiter-Glo luminescence, 16 h; activity change, negative = cytotoxicity: at 62.6 µM (top of the series)", "how_it_was_run": "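CellTiter-Glo viability readout on VDR-bla cells, measured after 16 h of compound treatment at 37C in the same wells.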"}, "[13]": {"molecular_target": "Peroxisome proliferator-activated receptor delta (Homo sapiens) (UniProt Q03181)", "sequence (Q03181 whole entry, looked up)": "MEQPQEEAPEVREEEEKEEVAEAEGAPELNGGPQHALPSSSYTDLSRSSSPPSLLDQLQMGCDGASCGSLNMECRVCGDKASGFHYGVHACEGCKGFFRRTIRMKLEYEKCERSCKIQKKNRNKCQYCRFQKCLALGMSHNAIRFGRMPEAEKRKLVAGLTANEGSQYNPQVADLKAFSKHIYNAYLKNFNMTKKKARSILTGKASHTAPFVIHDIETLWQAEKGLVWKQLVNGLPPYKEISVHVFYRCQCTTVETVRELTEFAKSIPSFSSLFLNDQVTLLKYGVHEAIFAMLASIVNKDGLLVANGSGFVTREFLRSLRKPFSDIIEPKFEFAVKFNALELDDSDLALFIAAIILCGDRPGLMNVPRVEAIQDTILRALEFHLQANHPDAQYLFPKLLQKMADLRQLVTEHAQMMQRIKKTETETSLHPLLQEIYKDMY", "assay": "qHTS assay to identify small molecule agonists of the peroxisome proliferator-activated receptor delta (PPARd) signaling pathway (AID 743212; calls by dose curve)", "conditions": "HEK293H PPARd-UAS-bla, beta-lactamase FRET ratio, 17 h; activation: at 62.6 µM (top of the series) unless noted", "how_it_was_run": "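Beta-lactamase reporter readout: a ratiometric FRET signal from the LiveBLAzer substrate after 2 h at room temperature. Compound exposure at 37 °C in PPARδ-bla HEK293H cells driven by an upstream activator sequence.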"}, "[14]": {"assay": "qHTS assay to identify small molecule antagonists of the peroxisome proliferator-activated receptor delta (PPARd) signaling pathway - cell viability counter screen (AID 743213); also: nearly all actives have a fitted effect of over 50% in size", "conditions": "PPARd-bla HEK293H viability, CellTiter-Glo luminescence, 17 h; viability change, negative = cytotoxic: at 62 µM (top of the series) unless noted", "how_it_was_run": "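CellTiter-Glo was added to PPARd-bla HEK293H wells following 17 h compound treatment in the presence of 300 nM L165041. Luminescence was recorded after 30 min at room temperature.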"}, "[15]": {"molecular_target": "Peroxisome proliferator-activated receptor delta (Homo sapiens) (UniProt Q03181)", "assay": "qHTS assay to identify small molecule antagonists of the peroxisome proliferator-activated receptor delta (PPARd) signaling pathway (AID 743215; active = well fitted inhibition curve with a large enough effect in the signal ratio in the repeat runs, not every such curve was filed as active; inconclusive = weak or mixed curves, or effect the other way; inactive = no such curve, though single readings can be large or run the other way; the % refers to the signal ratio)", "conditions": "HEK293H PPARd-UAS-bla, beta-lactamase FRET ratio, antagonist, 17 h; ratio activity, negative = inhibition: at 62 µM (top of the series) unless noted", "how_it_was_run": "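Here, a reporter line (HEK293H, beta-lactamase under a UAS) measures PPARd signaling. Compounds are tested against agonist L165041 at 300 nM final concentration over 17 h at 37 C, with fluorescence read after substrate.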"}, "[16]": {"molecular_target": "Bile acid receptor (Homo sapiens) (UniProt Q96RI1)", "sequence (Q96RI1 whole entry, looked up)": "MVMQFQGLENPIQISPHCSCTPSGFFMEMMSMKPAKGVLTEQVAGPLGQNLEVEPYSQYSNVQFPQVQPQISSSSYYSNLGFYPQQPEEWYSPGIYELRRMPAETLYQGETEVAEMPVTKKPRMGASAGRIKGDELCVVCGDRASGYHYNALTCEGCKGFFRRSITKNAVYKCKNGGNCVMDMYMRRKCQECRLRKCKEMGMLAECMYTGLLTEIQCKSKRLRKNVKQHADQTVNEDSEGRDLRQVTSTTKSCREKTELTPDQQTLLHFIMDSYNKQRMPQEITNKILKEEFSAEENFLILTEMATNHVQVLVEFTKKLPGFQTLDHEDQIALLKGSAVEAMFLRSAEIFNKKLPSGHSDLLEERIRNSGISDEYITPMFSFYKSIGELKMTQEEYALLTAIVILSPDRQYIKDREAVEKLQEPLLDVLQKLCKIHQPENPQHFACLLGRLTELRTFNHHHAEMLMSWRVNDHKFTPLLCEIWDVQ", "assay": "qHTS assay to identify small molecule antagonists of the farnesoid-X-receptor (FXR) signaling pathway (AID 743217; active = well fitted inhibition curve with a large enough effect in the signal ratio in the repeat runs, not every such curve was filed as active; inconclusive = weak or mixed curves, or effect the other way; inactive = no such curve, though single readings can be large or run the other way; the % refers to the signal ratio)", "conditions": "HEK293T FXR-UAS-bla, beta-lactamase ratio, CDCA-stimulated, 16 h; activity change, negative = inhibition: at 62.6 µM (top of the series) unless noted", "how_it_was_run": "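Test compounds are pin-transferred onto FXR-bla HEK 293T cells, then chenodeoxycholic acid is added at 50 uM final. After 16 h at 37 °C, LiveBLAzer B/G substrate is applied for 2 h at room temperature and fluorescence read.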"}, "[17]": {"molecular_target": "Bile acid receptor (Homo sapiens) (UniProt Q96RI1)", "assay": "qHTS assay to identify small molecule agonists of the farnesoid-X-receptor (FXR) signaling pathway (AID 743220; active = well fitted activation curve with a large enough effect in the signal ratio in the repeat runs, not every such curve was filed as active; inconclusive = weak or mixed curves, or effect the other way; the % refers to the signal ratio)", "conditions": "HEK293T FXR-UAS-bla, beta-lactamase FRET ratio, 16 h; activation: at 62.6 µM (top of the series) unless noted", "how_it_was_run": "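FXR-UAS-bla HEK 293T cells carrying a UAS-driven beta-lactamase reporter were plated for 5 h at 37C/5% CO2, then exposed to DMSO-dissolved Tox21 10K compounds for 16 h at 37C. A LiveBLAzer B/G FRET substrate was loaded for 2 h at room temperature before fluorescence reading.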"}}, "note": "Several values for one entry are separate records, joined by “and”; a condition that tells them apart may be missing. Equal values may be shown once. The shares of active, inactive and inconclusive entries below differ from those in the screen. For some assays here: Where the call is inconclusive, the potency comes from a doubtful curve fit. Activity calls are given as the source filed them. Unless noted, calls follow the shape of the dose curve; as a rule, active = well fitted curve in the direction sought with a large enough effect in the repeat runs; inconclusive = weak or mixed curves; inactive = no such curve, though single readings can be large; an effect the other way counts as inactive or inconclusive. Potency is read from the fitted curve at half-maximal effect; tags tell the direction and shape of the fitted curve or compound fluorescence and quenching.", "data": [{"smiles": "O=C(O)Cn1c(=O)n(Cc2ccc(Br)cc2F)c(=O)c2ccc(Cl)cc21", "values": [{"measurement": "Potency", "setting": "[1]", "value": "inconclusive: 38.6 µM [falling, partial curve, poor fit]"}, {"measurement": "Potency", "setting": "[2]", "value": "inconclusive: 30.9 µM [rising, partial curve, poor fit]"}, {"measurement": "Potency", "setting": "[3]", "value": "inconclusive: 30.9 µM and inconclusive: 18.8 µM"}, {"measurement": "Potency", "setting": "[4]", "value": "inconclusive: 43.3 µM [rising, partial curve, poor fit]"}, {"measurement": "Potency", "setting": "[5]", "value": "inactive"}]}, {"smiles": "CCC(C)(C)C(=O)O[C@H]1C[C@@H](C)C=C2C=C[C@H](C)[C@H](CC[C@@H]3C[C@@H](O)CC(=O)O3)[C@H]21", "values": [{"measurement": "Potency", "setting": "[1]", "value": "inactive"}, {"measurement": "Potency", "setting": "[2]", "value": "inconclusive: 24.5 µM [rising, full curve]"}, {"measurement": "Potency", "setting": "[3]", "value": "inconclusive: 54.9 µM [fluorescent, single point]"}, {"measurement": "Potency", "setting": "[6]", "value": "inconclusive: 54.9 µM [cytotoxic, single point]"}, {"measurement": "Potency", "setting": "[7]", "value": "inconclusive: 33.5 µM [cytotoxic]"}, {"measurement": "Potency", "setting": "[8]", "value": "inconclusive: 58.2 µM and inconclusive: 33.5 µM [single point]"}, {"measurement": "Potency", "setting": "[9]", "value": "inconclusive: 3.35 µM [cytotoxic, full curve, poor fit]"}, {"measurement": "Potency", "setting": "[10]", "value": "inconclusive: 29.8 µM"}, {"measurement": "Potency", "setting": "[5]", "value": "inconclusive: 13.8 µM [rising, full curve]"}, {"measurement": "Potency", "setting": "[11]", "value": "inconclusive: 16.9 µM [fluorescent, partial curve, poor fit]"}, {"measurement": "activity change, negative = inhibition", "setting": "[11]", "value": "inconclusive: 39.2%"}, {"measurement": "Potency", "setting": "[12]", "value": "inconclusive: 17.4 µM [cytotoxic, partial curve, poor fit] and inactive"}]}, {"smiles": "CCCCCCCC[P+](CCCCCCCC)(CCCCCCCC)CCCCCCCC", "values": [{"measurement": "Potency", "setting": "[1]", "value": "active: 19.2 µM"}, {"measurement": "Potency", "setting": "[2]", "value": "inconclusive: 21.7 µM [cytotoxic]"}, {"measurement": "Potency", "setting": "[3]", "value": "inconclusive: 21.7 µM [cytotoxic, full curve]"}, {"measurement": "Potency", "setting": "[6]", "value": "active: 4.34 µM"}, {"measurement": "Potency", "setting": "[4]", "value": "inconclusive: 9.63 µM [falling, full curve]"}, {"measurement": "Potency", "setting": "[7]", "value": "active: 5.46 µM"}, {"measurement": "Potency", "setting": "[13]", "value": "inconclusive: 13.7 µM"}, {"measurement": "Potency", "setting": "[14]", "value": "active: 7.71 µM"}, {"measurement": "Potency", "setting": "[15]", "value": "inconclusive: 19.4 µM [cytotoxic, full curve]"}, {"measurement": "Potency", "setting": "[16]", "value": "inconclusive: 30.7 µM [cytotoxic, partial curve]"}, {"measurement": "Potency", "setting": "[9]", "value": "active: 8.65 µM"}, {"measurement": "Potency", "setting": "[17]", "value": "inconclusive: 13.7 µM [cytotoxic, full curve]"}, {"measurement": "Potency", "setting": "[10]", "value": "active: 17.3 µM"}, {"measurement": "Potency", "setting": "[5]", "value": "inconclusive: 15.4 µM [cytotoxic, full curve]"}, {"measurement": "Potency", "setting": "[11]", "value": "active: 19.4 µM"}]}]}
